These results are taken from publication PMC4336329 (PLoS ONE, 2015).

In all, about 310,000 compounds went through this assay and about 2,200 (0.71%) showed an effect of 50% or more. Effects have a minus sign here. Some of the results follow.

The target in this assay is human ether-à-go-go-related gene (hERG) potassium channel (human, UniProt Q12809). Description: primary screen, population patch clamp on CHO cells stably expressing hERG.
Chain of human ether-à-go-go-related gene (hERG) potassium channel (Q12809 whole entry, looked up): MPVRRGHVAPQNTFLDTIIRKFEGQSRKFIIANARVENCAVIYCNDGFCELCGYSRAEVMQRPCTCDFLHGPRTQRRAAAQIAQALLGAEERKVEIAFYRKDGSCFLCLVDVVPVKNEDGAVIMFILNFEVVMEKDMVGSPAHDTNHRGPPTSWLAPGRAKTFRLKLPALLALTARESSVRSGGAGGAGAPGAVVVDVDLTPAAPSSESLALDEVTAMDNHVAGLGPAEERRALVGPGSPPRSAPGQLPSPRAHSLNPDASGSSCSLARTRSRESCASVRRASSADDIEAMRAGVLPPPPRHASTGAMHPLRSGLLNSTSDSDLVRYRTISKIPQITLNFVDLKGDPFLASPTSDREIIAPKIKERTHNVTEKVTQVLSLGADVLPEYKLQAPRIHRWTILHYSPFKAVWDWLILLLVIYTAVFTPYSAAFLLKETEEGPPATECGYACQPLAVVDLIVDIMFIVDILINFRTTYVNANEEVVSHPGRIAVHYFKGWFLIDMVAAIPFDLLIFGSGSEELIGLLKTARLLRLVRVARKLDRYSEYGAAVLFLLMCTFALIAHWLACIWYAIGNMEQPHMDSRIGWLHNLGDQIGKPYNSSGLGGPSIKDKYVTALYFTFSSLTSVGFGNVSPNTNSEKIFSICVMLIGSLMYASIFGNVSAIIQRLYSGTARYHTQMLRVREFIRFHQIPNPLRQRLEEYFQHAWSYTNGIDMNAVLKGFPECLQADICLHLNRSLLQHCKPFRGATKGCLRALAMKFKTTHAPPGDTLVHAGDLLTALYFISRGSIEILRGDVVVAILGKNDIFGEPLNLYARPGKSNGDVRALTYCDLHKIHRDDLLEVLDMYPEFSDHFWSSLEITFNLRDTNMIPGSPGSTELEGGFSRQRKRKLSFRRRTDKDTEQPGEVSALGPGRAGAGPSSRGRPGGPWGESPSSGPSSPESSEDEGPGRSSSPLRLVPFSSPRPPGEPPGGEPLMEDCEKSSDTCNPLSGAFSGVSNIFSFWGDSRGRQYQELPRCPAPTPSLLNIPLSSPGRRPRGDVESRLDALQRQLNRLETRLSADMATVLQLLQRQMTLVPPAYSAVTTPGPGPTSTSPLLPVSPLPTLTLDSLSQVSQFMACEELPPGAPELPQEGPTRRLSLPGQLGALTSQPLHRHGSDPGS
On to `O=C(NCCc1ccc(Cl)cc1)C1CCCN1C(=O)Nc1ccc(F)cc1` (stereo not drawn), for which the “hERG current change (%, negative = inhibition) at 1uM” value was -0.166%.
With `Cc1ccc(NS(=O)(=O)c2cc(C(=O)N3CCCC3)ccc2C)cc1C`, the “hERG current change (%, negative = inhibition) at 1uM” value was determined as 8.34%.
The result for `CC(C)Oc1ccc(S(=O)(=O)N2CCOCC2)cc1NC(=O)C1CSC2(C)CCC(=O)N12` (stereo not drawn) reads 8.32%; that for `O=S(=O)(NC1CCCCCCC1)c1ccc(F)cc1`, 12.2%; that for `Cc1c(C(c2ccc(Cl)cc2Cl)c2c(O)c3ccccc3oc2=O)c(=O)n(-c2ccccc2)n1C` (stereo not drawn), -4.08%.
The result for `O=C(C1CCN(Cc2ccc(OCc3ccccc3)cc2)CC1)N1CCCC1` reads -14.6%.
On to `CCC(C)(C)NS(=O)(=O)c1cc(CN2C(=O)c3cccnc3C2=O)ccc1OC`, for which the “hERG current change (%, negative = inhibition) at 1uM” value is given as 11.4%.
In the case of `O=C(c1ccccc1F)N1CCN(c2ccc([N+](=O)[O-])c(NCC3CCCO3)c2)CC1` (stereo not drawn) it was -10.1%; in that of `COc1ccc2oc(C(=O)NCC(Cc3ccccc3)N(C)C)c(C)c2c1` (stereo not drawn), -6.57%.
Turning to `O=C(CSc1nnc(-c2ccncc2)o1)c1ccc2c(c1)OCCO2`, the “hERG current change (%, negative = inhibition) at 1uM” value is recorded as 9.65%.
In the case of `Cc1ccc(Cc2c(C)nc3nc(SCC(=O)NCCCN4CCCCC4)nn3c2C)cc1` it was -19.7%; in that of `COc1ccc(C2Nc3ccccc3C(=O)N2NS(C)(=O)=O)cc1OC` (stereo not drawn), 11.7%.
In the case of `COc1ccc(S(=O)(=O)N2CCN(c3ccccc3)CC2)cc1`, the “hERG current change (%, negative = inhibition) at 1uM” value was found to be 8.51%.
`COC(=O)Nc1ccc(S(=O)(=O)N2CCN(CCN3C(=O)C4C5C=CC(C5)C4C3=O)CC2)cc1` (stereo not drawn): the “hERG current change (%, negative = inhibition) at 1uM” value was determined as 0.886%.
Consider `CCc1cccc(C)c1NC(=O)C1CC=CCC1C(=O)O` (stereo not drawn), for which the “hERG current change (%, negative = inhibition) at 1uM” value is 6.97%.
The result for `COc1ccc2nc(SCC(=O)Nc3ccc4[nH]c(=O)[nH]c4c3)[nH]c2c1` reads 8.35%.
Consider `Cc1ccc2c(CN(C)Cc3cccc(Cl)c3)cc(=O)oc2c1C`, for which the “hERG current change (%, negative = inhibition) at 1uM” value is on record as 12.2%.
For the compound `COc1ccccc1Cn1c(=S)[nH]c2cc(C(=O)NCCN3CCOCC3)ccc2c1=O`, the “hERG current change (%, negative = inhibition) at 1uM” value is given as 1.24%.
On to `Cc1cc(NC(=O)COC(=O)CCCOc2ccc(Cl)cc2C)no1`, for which the “hERG current change (%, negative = inhibition) at 1uM” value is on record as 11.7%.
As for `Cn1c(/N=C/c2cc(Cl)ccc2O)nc2ccccc21`, the “hERG current change (%, negative = inhibition) at 1uM” value is -1.55%.
The result for `CCN1CCN(c2nc3c(C)cccn3c(=O)c2/C=C(\C#N)C(=O)NCCCOC)CC1` reads 8.74%; that for `C=C(C)[C@H]1CN[C@H](C(=O)O)[C@H]1CC(=O)O`, 10%; that for `CC(C)(C)OC(=O)N1CCC[C@H]1c1nnc(SC/C=C/c2ccccc2)o1`, -0.126%.
In the case of `CCCCN(CC)C(=S)Nc1ccc2nc3n(c(=O)c2c1)CCCCC3` it was -12.2%.
In the case of `O=C(NCCC(NS(=O)(=O)OCC(Cl)(Cl)Cl)c1ccccc1)C(F)(F)F` (stereo not drawn) it was 1.59%; in that of `O=C(O)C(=O)O.O=C1CN(C(=O)CNCc2ccccc2Cl)c2ccccc2N1`, 7.81%; in that of `Cc1cc(/C([O-])=C(/C(=S)Nc2ccc(F)cc2)[n+]2ccccc2)c(C)n1Cc1ccccc1Cl`, 16%.
Take `COc1ccccc1C(=O)NCC(=O)N/N=C/c1ccc2c(c1)OCO2`: the “hERG current change (%, negative = inhibition) at 1uM” value is 13.7%.
Turning to `CN1C(=O)N(C)C(=O)C(CCc2ccccn2)(CCc2ccccn2)C1=O`, the “hERG current change (%, negative = inhibition) at 1uM” value is 3.49%.
The result for `O=C(Nc1ccc(S(=O)(=O)N2CCOCC2)cc1)c1ccc(Cl)cc1Cl` reads 3.4%.
For `Cc1cc(=O)c(C(=O)O)nn1-c1ccccc1`, the “hERG current change (%, negative = inhibition) at 1uM” value was 8.46%.
In the case of `COc1ccc(C(=O)N2CCCC(Nc3ccc(F)cc3)C2)cc1F` (stereo not drawn) it was 10.4%; in that of `CC1CN(Cc2ccccc2)c2ccccc2NC1=S` (stereo not drawn), 8.37%.
In the case of `N#C/C(=C/c1cccc([N+](=O)[O-])c1)c1nnc2n1CCCCC2` it was -3.83%; in that of `O=C(CCCC(=O)N(CC(=O)NC1CCCC1)Cc1ccc2c(c1)OCO2)Nc1ccccn1`, 2.01%; in that of `COc1ccc(N=Cc2c(O)n(Cc3ccccc3)c(=S)[nH]c2=O)c(OC)c1`, 2.11%.
The result for `S=C(NCc1cccnc1)Nc1ccc(Cl)cc1Cl` reads 1.81%; that for `Cc1ccc(C(=O)COC(=O)c2ccc(Br)o2)cc1C`, 7.52%.
With `CCOC(=O)C1=C(C)NC(C)=C(C(=O)OCC)C1C(=O)OCC(=O)NCCc1ccc(S(N)(=O)=O)cc1`, the “hERG current change (%, negative = inhibition) at 1uM” value came to 19.1%.
In the case of `Cc1cc(C)nc(NS(=O)(=O)c2ccc(NC(=O)c3snnc3C)cc2)n1` it was 9.16%.
The result for `NS(=O)(=O)c1ccc(NCC2COc3ccccc3O2)c([N+](=O)[O-])c1` (stereo not drawn) reads 17%; that for `CC(C)OC(=O)c1cccc(NC(=O)c2ccccc2)c1`, 2.94%; that for `COc1ccccc1-c1nc(COc2ccc(Cl)cc2Cl)no1`, 17.5%.
On to `COc1cccc(-n2c(=O)c3sccc3n(CC(=O)NC3CCCCC3)c2=O)c1`, for which the “hERG current change (%, negative = inhibition) at 1uM” value is recorded as 15.2%.
The result for `Cc1ccc2nc(-c3ccccc3)c(CN3CCSCC3)n2c1` reads 9.56%; that for `COc1cccc(CNS(=O)(=O)c2ccc3c(c2)N(C)CCO3)c1`, 5.96%; that for `CC(C)(O)c1cn(-c2nonc2N)nn1`, 10.5%.
The result for `Brc1ccc(CNc2cc3c(cc2Br)OCCO3)cc1` reads 17.4%; that for `O=C(N/N=C/c1ccc(OC2CSC2)cc1)c1ccccc1`, -0.636%; that for `CCOc1ccc(N2CC(O)Cn3c2nc2c3c(=O)n(CCCc3ccccc3)c(=O)n2C)cc1` (stereo not drawn), 11.7%.
For the compound `CN(C)S(=O)(=O)N(CC(=O)NCc1ccccc1)c1ccccc1`, the “hERG current change (%, negative = inhibition) at 1uM” value is reported as 7.88%.
In the case of `O=C(C/C=N/OCc1c(Cl)cccc1Cl)c1ccccc1` it was -6.6%; in that of `CC(C)C[C@H](NC(=O)OC(C)(C)C)C(=O)N[C@@H](CO)[C@H](O)[C@@H]1C[C@@H]1C(=O)NC1CC1`, 4.75%; in that of `Cn1c(=O)[nH]c(=O)c2c1nc(Sc1ncccn1)n2CCCc1ccccc1`, -6.2%.
Take `O=C1C(=O)N(Cc2cccnc2)C(c2ccc(Br)cc2)/C1=C(\O)c1ccc2c(c1)OCCO2` (stereo not drawn): the “hERG current change (%, negative = inhibition) at 1uM” value amounted to 5.38%.
In the case of `Cc1ccc(S(=O)(=O)Nc2cc(C)cn(Cc3ccccc3)c2=O)cc1`, the “hERG current change (%, negative = inhibition) at 1uM” value is 14.7%.
In the case of `CCOc1cc(NC(=O)c2ccco2)c(OCC)cc1NC(=O)Cc1cccc(OC)c1` it was 5.79%; in that of `CC(=O)Nc1ccc(NC(=O)C(C)OC(=O)c2cccc(S(=O)(=O)N3CCCCC3)c2)cc1` (stereo not drawn), 13.3%; in that of `CCOC(=O)CNC(=S)N(Cc1cccs1)C1CCCCC1`, 10.8%.
`N#CCCn1cc(C(=O)Nc2ccc(C(=O)O)cc2)c(-c2cc3ccccc3o2)n1`: the “hERG current change (%, negative = inhibition) at 1uM” value came to 15.4%.
For `CSc1ccc(C(=S)N2CCN(C(c3ccccc3)c3ccccc3)CC2)cc1`, the “hERG current change (%, negative = inhibition) at 1uM” value worked out at 7.8%.
For `Cc1cc(C(=O)NNC(=O)CCC2CCCCC2)c(C)o1`, the “hERG current change (%, negative = inhibition) at 1uM” value worked out at 12.5%.
Turning to `Cc1ccc(Oc2nc(C(F)(F)F)nc3ccccc23)cc1`, the “hERG current change (%, negative = inhibition) at 1uM” value is recorded as 6.66%.
In the case of `COc1cccc(NC(=O)CN(C)C(=O)c2ccccc2CCc2ccccc2)c1`, the “hERG current change (%, negative = inhibition) at 1uM” value was 13.3%.
In the case of `O=C(O)Cc1sc(Nc2cccc3ccccc23)nc1-c1ccc(F)cc1` it was 14.5%.
The result for `OCC1(CO)COC(c2cccnc2)N1` (stereo not drawn) reads 4.05%; that for `CC(=O)Nc1ccccc1NC(=O)CC(C)(C)C`, -8.06%; that for `CCCn1nnnc1NCc1ccc(C(C)C)cc1`, 7.76%.
In the case of `CC1(C)C2CC=C(/C=N/NC(=O)C(N)=O)C1C2` (stereo not drawn) it was 10.3%.
In the case of `CCOC(=O)C1CCCN(c2c(Nc3cccc(C)c3)c(=O)c2=O)C1` (stereo not drawn), the “hERG current change (%, negative = inhibition) at 1uM” value is 3.17%.
The result for `O=[N+]([O-])c1ccc2c(c1)oc1ccccc12` reads 19.5%; that for `COc1ccc(N(CC(=O)Nc2ccc3c(c2)OCCO3)S(=O)(=O)c2cccnc2)cc1`, 2.97%; that for `CC(C)CC(=O)NC(=S)NCc1ccccc1`, 7.19%.
The result for `CSc1ncc(Cl)c(C(=O)Nc2ccc(S(=O)(=O)Nc3nccc(C)n3)cc2)n1` reads -8.05%; that for `O=C(CCCCn1c(=O)[nH]c2ccccc2c1=O)NCc1ccc2c(c1)OCO2`, 10.7%; that for `CC(=O)NC(Cc1c[nH]c2ccccc12)C(=O)NCc1ccco1` (stereo not drawn), 15.4%.
In the case of `Cc1ccc(Sc2ccc(CN3CCCCC3)cc2[N+](=O)[O-])cc1` it was 29.3%.
As for `O=C(c1cc(F)ccc1F)C1CCCN(C(=O)CSc2ccccn2)C1` (stereo not drawn), the “hERG current change (%, negative = inhibition) at 1uM” value is -3.1%.
The result for `CCOC(=O)C(=O)Nc1ccccc1C(=O)NC(C)C` reads 5.82%; that for `CCCNC(=O)CNC(=S)N(Cc1ccccc1F)C1CCCCC1`, 2.76%.
In the case of `NC(=O)Nc1ccc(C(=O)OCC(=O)NCc2ccc3c(c2)OCO3)cc1` it was 10.4%.
Take `CC(=O)c1cccc(NC(=O)COC(=O)c2ccc(S(C)(=O)=O)c([N+](=O)[O-])c2)c1`: the “hERG current change (%, negative = inhibition) at 1uM” value was found to be 14.7%.
The result for `CC(=O)C1C(=O)CC(c2ccc(Cl)cc2)CC1=O` (stereo not drawn) reads 13.2%.
In the case of `Cc1nc(Nc2nc3ccccc3o2)nc2c1CCC2` it was 19%.
`O=C(O)c1ccc(N2C(=O)c3cccc(Oc4ccc(Cl)cc4)c3C2=O)cc1`: the “hERG current change (%, negative = inhibition) at 1uM” value is -14.2%.
In the case of `COc1ccccc1C(=O)NC(=O)COC(=O)C1CCC1` it was 3.17%; in that of `CCOC(=O)c1c(NC(=O)c2noc(C)c2[N+](=O)[O-])sc(C(C)=O)c1C`, 10.3%.
